In the supplement of paper PMC4967469:
A lower IC50 marks a more sensitive line; fits outside the tested doses are given as limits. For AUC the same curve is integrated over the 256-fold range of doses and scaled to a fraction: 1 means no effect, lower means more sensitive. For some assays here: Any top dose called inferred was derived from the fitted curves, not read from the paper. For some assays here: An entry number marks a drug with two screens in the source, which often give different values.

Key:
Test in all cases: Viability of human cancer cell lines after 72 h of drug (GDSC screen)
Pyrimethamine = compound: CCc1nc(N)nc(N)c1-c1ccc(Cl)cc1 [Pyrimethamine]; conditions: top dose 20 µM; top dose inferred
Procedure: (§1)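 Human cancer cell lines in 384-well plates, medium with 10% serum, drug for 72 h over a 256-fold dose range (nine 2-fold or five 4-fold steps up to the top dose). Adherent lines were fixed and stained with the nucleic acid dye Syto60, suspension lines read with resazurin; signal relative to control wells, capped at 0 and 100%. One two-parameter sigmoid per drug and line, fitted in a mixed model over all curves with the slope shared within a line.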

TPCA-1 = compound: NC(=O)Nc1sc(-c2ccc(F)cc2)cc1C(N)=O [TPCA-1]; conditions: top dose 20 µM
Procedure: as §1

AZD-0530 = compound: CN1CCN(CCOc2cc(OC3CCOCC3)c3c(Nc4c(Cl)ccc5c4OCO5)ncnc3c2)CC1 [AZD-0530]; conditions: top dose 2 µM
Procedure: as §1

Imatinib = compound: Cc1ccc(NC(=O)c2ccc(CN3CCN(C)CC3)cc2)cc1Nc1nccc(-c2cccnc2)n1 [Imatinib]; conditions: top dose 2 µM
Procedure: as §1

Epothilone B = compound: C/C(=C\c1csc(C)n1)[C@@H]1C[C@@H]2O[C@]2(C)CCC[C@H](C)[C@H](O)[C@@H](C)C(=O)C(C)(C)[C@@H](O)CC(=O)O1 [Epothilone B]; conditions: top dose 0.032 µM; top dose inferred
Procedure: as §1

Y-39983 = compound: C[C@@H](N)c1ccc(C(=O)Nc2ccnc3[nH]ccc23)cc1 [Y-39983]; conditions: top dose 20 µM; top dose inferred
Procedure: as §1

PLX4720 = compound: CCCS(=O)(=O)Nc1ccc(F)c(C(=O)c2c[nH]c3ncc(Cl)cc23)c1F [PLX4720]; conditions: top dose 10 µM
Procedure: as §1

PHA-793887 = compound: CC(C)CC(=O)Nc1n[nH]c2c1CN(C(=O)C1CCN(C)CC1)C2(C)C [PHA-793887]; conditions: top dose 10.24 µM
Procedure: as §1

[1] = screen: GDSC drug entry 1371, top dose inferred

| Cell Line | AUC (Pyrimethamine) | IC50 (Pyrimethamine) [µM] | AUC (TPCA-1) | IC50 (TPCA-1) [µM] | AUC (AZD-0530) | IC50 (AZD-0530) [µM] | AUC (Imatinib) | IC50 (Imatinib) [µM] | AUC (Epothilone B) | IC50 (Epothilone B) [µM] | AUC (Y-39983) | IC50 (Y-39983) [µM] | AUC (PLX4720; screen: GDSC drug entry 1036) | IC50 (PLX4720; screen: GDSC drug entry 1036) [µM] | AUC (PLX4720; [1]) | IC50 (PLX4720; [1]) [µM] | AUC (PHA-793887) | IC50 (PHA-793887) [µM] |
| --- | --- | --- | --- | --- | --- | --- | --- | --- | --- | --- | --- | --- | --- | --- | --- | --- | --- | --- |
| NCI-H2135 (non-small cell lung carcinoma, adherent) | 0.989 | > 20 | 0.821 | 11.1 | 0.99 | > 2 | 0.99 | > 2 | 0.831 | 0.0195 | 0.924 | > 20 | 0.99 | > 10 | 0.99 | > 10 | 0.804 | 4.93 |
| NEC8 (testis, adherent) | 0.54 | 1.58 | 0.751 | 5.72 | 0.991 | > 2 | 0.99 | > 2 | 0.608 | 0.00378 | 0.912 | > 20 | 0.969 | > 10 |  |  | 0.597 | 1.13 |
| NH-12 (neuroblastoma, adherent) | 0.983 | > 20 | 0.642 | 3.24 | 0.984 | > 2 | 0.984 | > 2 | 0.422 | 0.00119 | 0.959 | > 20 | 0.981 | > 10 |  |  | 0.969 | > 10.2 |
| OCUB-M (breast, adherent) | 0.989 | > 20 | 0.784 | 7.31 | 0.983 | > 2 | 0.99 | > 2 | 0.401 | 0.00111 | 0.867 | 14.1 | 0.987 | > 10 | 0.975 | > 10 | 0.666 | 1.73 |
| ONS-76 (medulloblastoma, adherent) | 0.804 | 11 | 0.887 | > 20 | 0.984 | > 2 | 0.984 | > 2 | 0.594 | 0.0037 | 0.981 | > 20 | 0.974 | > 10 | 0.926 | > 10 | 0.468 | 0.519 |
| OVCAR-4 (ovary, adherent) | 0.686 | 5.42 | 0.784 | 13.4 | 0.915 | > 2 | 0.971 | > 2 | 0.483 | 0.00176 | 0.969 | > 20 | 0.956 | > 10 | 0.972 | > 10 | 0.855 | > 10.2 |
| P30-OHK (lymphoblastic leukaemia, suspension) | 0.95 | > 20 | 0.351 | 0.524 | 0.983 | > 2 | 0.99 | > 2 | 0.64 | 0.00454 | 0.538 | 1.56 | 0.918 | > 10 | 0.949 | > 10 | 0.29 | 0.184 |
| RCC10RGB (kidney, adherent) | 0.932 | > 20 | 0.756 | 14.6 | 0.925 | > 2 | 0.971 | > 2 | 0.745 | 0.0207 | 0.853 | > 20 | 0.957 | > 10 | 0.934 | > 10 | 0.971 | > 10.2 |
